Assay results as given in the supplement of paper PMC10502849.
Counter-ions that a name gives are not always drawn. The list shows a part of the results. Most values come without repeats; read them as rough.

How the values were obtained:
[1] = test system: H9 teratoma-derived LAM model cells, TSC2-/-; test: percent SyTOX+ dead cells; higher = more cytotoxic; conditions: 5 µM, treatment time 72 h, culture: 3D hyaluronic acid hydrogel
[2] = test system: H9 teratoma-derived LAM model cells, WT; test: percent SyTOX+ dead cells; higher = more cytotoxic; conditions: 5 µM, treatment time 72 h, culture: 3D hyaluronic acid hydrogel, genotype: WT
[3] = test system: H9 teratoma-derived LAM model cells, TSC2-/-; test: percent of cells invaded past median invasion distance of vehicle control; LAM is lymphangioleiomyomatosis; the cells come from teratomas of the human stem cell line H9; higher = more invasion; extreme values may be limits of the assay; conditions: 5 µM, treatment time 72 h, culture: 3D hyaluronic acid hydrogel
[4] = test system: H9 teratoma-derived LAM model cells, WT; test: as above; conditions: 5 µM, treatment time 72 h, culture: 3D hyaluronic acid hydrogel, genotype: WT
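Throughout, for percent SyTOX+ dead cells: cells seeded atop a hyaluronic acid gel crosslinked via MMP-cleavable peptides, containing vitronectin peptides and methylcellulose, imaged live by high-content microscopy with automated analysis, one technical replicate per compound.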
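Throughout, for percent of cells invaded past median invasion distance of vehicle control: live cells imaged by high content microscopy and scored with in-house automated image analysis, one technical replicate per compound in each genotype and rapamycin condition.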

Row | Compound | percent SyTOX+ dead cells ([1]; rapamycin 0 nM) [%] | percent SyTOX+ dead cells ([1]; rapamycin 20 nM) [%] | percent SyTOX+ dead cells ([2]; rapamycin 0 nM) [%] | percent SyTOX+ dead cells ([2]; rapamycin 20 nM) [%] | percent ([3]; rapamycin 0 nM) [%] | percent ([3]; rapamycin 20 nM) [%] | percent ([4]; rapamycin 0 nM) [%] | percent ([4]; rapamycin 20 nM) [%]
1 | CC(C)N(CCCNC(=O)Nc1ccc(C(C)(C)C)cc1)C[C@H]1O[C@@H](n2cc(Br)c3c(N)ncnc32)[C@H](O)[C@@H]1O | 27.6 | 29.2 | 28.1 | 36.8 | 17.5 | 3.85 | 22 | 5.33
2 | CC(C)(C)Cn1c(N)nc2ccc(-c3[nH]c(C(C)(C)C)nc3-c3ccc(F)cc3)nc21 | 7.66 | 3.74 | 20.5 | 10.4 | 89 | 62.9 | 59.2 | 13.3
3 | COc1ccc(C(=O)CC2(O)C(=O)Nc3c(Cl)ccc(Cl)c32)cc1 (single isomer, unassigned; (-)) | 11.6 | 13.2 | 16.6 | 18.6 | 44 | 28.3 | 34.7 | 24
4 | CCOC(=O)c1ccc(OC(=O)CCCCCN=C(N)N)cc1 [Gabexate mesylate, FOY] | 34.2 | 39.5 | 37.6 | 33 | 35.5 | 29.3 | 41.8 | 60.2
5 | COc1ccc(S(=O)(=O)N(C(C)=O)c2ccccc2/C=C/c2cc[n+]([O-])cc2)cc1 | 69.3 | 60.9 | 67.2 | 61.7 | 11.5 | 13.8 | 3.79 | 1.68
6 | Cc1cnc(CNC(=O)c2c(=O)c3ccc(N4CCCN(C)CC4)nc3n3c2sc2ccccc23)cn1 | 11.8 | 10.3 | 16.2 | 14.6 | 44.7 | 47.4 | 55.9 | 68.9
7 | C/C(=N\N=C(N)N)c1ccc(NC(=O)c2cc3cccc([N+](=O)[O-])c3[nH]2)cc1 | 8.99 | 8.19 | 11.3 | 8.11 | 36.8 | 16.8 | 14.5 | 20.1
8 | FC(F)c1nc2ccccc2n1-c1nc(N2CCOCC2)nc(N2CCOCC2)n1 | 21.8 | 22.7 | 25.9 | 27.1 | 10.9 | 17.3 | 8.04 | 10.2
9 | COc1cc2/c(=N/c3ccc(Br)cc3F)nc[nH]c2cc1OCC1CCN(C)CC1 [Vandetanib, Zactima, ZD6474, AZD-6474] | 20.2 | 28.4 | 31.4 | 24.8 | 15.4 | 16.5 | 1.9 | 3.15
10 | COc1cc2ncnc(Nc3ccc(Cl)cc3F)c2cc1OC | 26.8 | 16.5 | 22.9 | 23.4 | 12.3 | 17.7 | 16 | 4.46
11 | CN(C)Cc1cccc(N=C(c2ccccc2)c2c(O)[nH]c3cc(C(=O)N(C)C)ccc23)c1 | 10 | 4.76 | 22.1 | 13.3 | 73.2 | 69 | 42.9 | 30.1
12 | CC(C)N(CCC(=O)c1ccc2ccccc2c1)Cc1ccccc1 | 18.4 | 10 | 13.8 | 7.14 | 69.5 | 50 | 17.4 | 69.3
13 | O=C(O)c1ccc(O)c2ncccc12 [IOX 1, 5-carboxy-8HQ, IOX-1] | 15 | 13.5 | 23.6 | 24.8 | 70.6 | 64.1 | 36.6 | 32.2
14 | COc1ccc(-c2nc(N3CCOCC3)c3sc(CN(C)c4ncc(C(=O)NO)cn4)cc3n2)cn1 | 14 | 14.5 | 14.7 | 13.4 | 60.7 | 33.4 | 43.9 | 34.6
15 | O=C(CN1C2=NCCN2c2ccccc21)c1ccc(-c2ccccc2)cc1 | 11.7 | 8.92 | 21.4 | 14.7 | 64.9 | 58.6 | 58.9 | 53.9
16 | CC#CC(=O)Nc1ccc2ncnc(Nc3cccc(Br)c3)c2c1 | 24.2 | 22.8 | 30.9 | 31 | 10.5 | 8.89 | 9.93 | 8.08
17 | Nc1nc(F)nc2c1ncn2[C@@H]1O[C@H](CO)[C@@H](O)[C@@H]1O | 12.1 | 13.3 | 17.9 | 12 | 37.9 | 40.5 | 39.5 | 38
18 | CC(C)c1cc(/C=C(\C#N)C(=O)NCCCc2ccccc2)cc(C(C)C)c1O [Tyrphostin SU 1498, SU 1498] | 25.9 | 16.7 | 19.2 | 33.7 | 47 | 34.7 | 0.53 | 16.8
19 | CC(C)CC(=O)Nc1n[nH]c2c1CN(C(=O)C1CCN(C)CC1)C2(C)C | 18.9 | 6.2 | 12.8 | 12.4 | 61 | 70.7 | 77.4 | 66.1
20 | O=C1C(Cl)=C(NCCN2CCOCC2)C(=O)c2ncccc21 | 6.69 | 15.2 | 13.2 | 15.9 | 48.7 | 52 | 56.1 | 60.5
21 | CC1(C)NC(=O)N(c2ccc([N+](=O)[O-])c(C(F)(F)F)c2)C1=O | 12.2 | 9.54 | 10.8 | 9.14 | 48.4 | 41.5 | 54.5 | 48.1
22 | CCc1cnn2c(NCc3ccc[n+]([O-])c3)cc(N3CCCC[C@H]3CCO)nc12 | 28.1 | 7.64 | 29.1 | 17.8 | 4.68 | 10.2 | 2.95 | 2.72
23 | COc1ccc2c(Oc3ccc(NC(=O)c4c(C)n(CC(C)(C)O)n(-c5ccccc5)c4=O)nc3)ccnc2c1 | 50.8 | 41.4 | 64.3 | 58.3 | 6.25 | 3.02 | 0.78 | 0.28

Row | Compound | percent SyTOX+ dead cells ([1]; rapamycin 0 nM) [%] | percent SyTOX+ dead cells ([1]; rapamycin 20 nM) [%] | percent SyTOX+ dead cells ([2]; rapamycin 0 nM) [%] | percent SyTOX+ dead cells ([2]; rapamycin 20 nM) [%] | percent ([3]; rapamycin 0 nM) [%] | percent ([3]; rapamycin 20 nM) [%] | percent ([4]; rapamycin 0 nM) [%] | percent ([4]; rapamycin 20 nM) [%]
24 | O=C(c1cc(Cc2n[nH]c(=O)c3ccccc23)ccc1F)N1CCN(C(=O)C2CC2)CC1 | 17.2 | 18.6 | 16.4 | 12.4 | 21.9 | 22.2 | 59.4 | 65.4
25 | Cn1cc(-c2ccc3nnc(C(F)(F)c4ccc5ncccc5c4)n3n2)cn1 | 8.05 | 11.2 | 9.57 | 6.69 | 18.2 | 18 | 13.3 | 17.9
26 | CCOc1cc2ncc(C#N)c(Nc3ccc(OCc4ccccn4)c(Cl)c3)c2cc1NC(=O)/C=C/CN(C)C [Neratinib, HKI-272, CPD-820] | 5.46 | 9.62 | 28.5 | 33.9 | 80.2 | 99.6 | 35.4 | 45.2
27 | CC(C)(C)n1nc(-c2cccc3ccccc23)c2c(N)ncnc21 [1-Naphthyl PP1, 1-NA-PP 1] | 30.6 | 26.9 | 31.3 | 38.2 | 2.78 | 4.96 | 0.51 | 1.96
28 | C[C@@H](Oc1cc(-c2cnn(C3CCNCC3)c2)cnc1N)c1c(Cl)ccc(F)c1Cl | 10.3 | 12.5 | 23.1 | 16.2 | 51.3 | 29 | 41.5 | 44.4
29 | CC(/C=C/C(=O)NO)=C\[C@@H](C)C(=O)c1ccc(N(C)C)cc1 [Trichostatin A, TSA, Tricostatin A] | 22.4 | 35 | 38 | 24.6 | 74.5 | 10.2 | 68 | 32.8
30 | CC[C@H](C)n1cc(C)c2c(C(=O)NCc3c(C)cc(C)[nH]c3=O)cc(-c3ccc(N4CCNCC4)nc3)cc21 | 11 | 9.72 | 17.3 | 17.8 | 80.6 | 77.8 | 74.2 | 67.3
31 | CCc1cccc(CC)c1NC(=O)N1Cc2[nH]nc(NC(=O)c3ccc(N4CCN(C)CC4)cc3)c2C1 | 22.6 | 14.3 | 52.4 | 42.6 | 44.6 | 33.9 | 22.5 | 13.7
32 | CCc1cc(CN2CC(C(=O)O)C2)sc1-c1noc(-c2ccc(Oc3ccccc3)cc2)n1 | 44.8 | 44 | 41.9 | 40.3 | 7.65 | 5.24 | 13.4 | 16
33 | CC(C)(C)c1cc(NC(=O)Nc2ccc(-c3cn4c(n3)sc3cc(OCCN5CCOCC5)ccc34)cc2)no1 | 14.6 | 11.7 | 18.8 | 11.7 | 36.4 | 31.6 | 13 | 27.1
34 | Cc1cc(C=C2C(=O)C=CC2=O)cc(C)c1O | 56.8 | 55.8 | 52.3 | 34.7 | 0.9 | 0 | 0 | 0
35 | CS(=O)(=O)c1cccc(CNc2nc(Nc3ccc4c(c3)CCC(=O)N4)ncc2C(F)(F)F)c1 | 16.1 | 19.4 | 40.7 | 27.4 | 4.24 | 6.8 | 1.16 | 1.89
36 | O=c1cc(N2CCOCC2)oc2c1ccc1ccccc12 | 22.7 | 28.2 | 15.3 | 12.5 | 7.27 | 6.34 | 1.53 | 1.92
37 | O=C(c1ccc(C(=O)N2CCC(N3CCCC3)CC2)c(Nc2ccccc2)c1)N1CCC(N2CCCC2)CC1 | 20.4 | 23.2 | 23.9 | 19.1 | 5.93 | 3 | 0 | 0.89
38 | O=C(Nc1ccc([N+](=O)[O-])cc1O)Nc1ccccc1Br | 20.4 | 22.2 | 39.6 | 2.04 | 49.7 | 37.2 | 1.04 | 8.16
39 | CO[C@H]1C[C@@H]2CC[C@@H](C)[C@@](O)(O2)C(=O)C(=O)N2CCCC[C@H]2C(=O)O[C@H]([C@H](C)C[C@@H]2CC[C@@H](OC(=O)C(C)(CO)CO)[C@H](OC)C2)CC(=O)[C@H](C)/C=C(\C)[C@@H](O)[C@@H](OC)C(=O)[C@H](C)C[C@H](C)/C=C/C=C/C=C/1C [Temsirolimus, CCI-779, Torisel] | 14.4 | 12.4 | 12.1 | 15.1 | 22.6 | 37.1 | 3.45 | 30.1
40 | O=c1[nH]ccc2c(S(=O)(=O)N3CCCNCC3)cccc12 [HA 1100 hydrochloride, Hydroxyfasudil] | 6.12 | 10.7 | 7.78 | 11.6 | 16.3 | 24.8 | 19.3 | 19.4
41 | O=C(/C=C/c1ccc(O)cc1)c1ccc(O)cc1O [Isoliquiritigenin, ISLQ] | 29 | 47.5 | 29.9 | 48.6 | 0.3 | 0.38 | 0 | 0
42 | CC(C)c1cnn2c(NCc3ccccc3)cc(NCCCCCCN)nc12 [BS-181 hydrochloride] | 4.44 | 0.74 | 14.4 | 9.82 | 82.9 | 84.9 | 74.2 | 46.3
43 | O=C(O)C(=O)Nc1sc2c(c1C(=O)O)CCNC2 | 10.4 | 16.4 | 18.5 | 11.6 | 65.6 | 52.7 | 50.4 | 56.9
44 | NS(=O)(=O)c1ccc(Nc2nc(OCC3CCCCC3)c3[nH]cnc3n2)cc1 | 22.6 | 19.1 | 11.2 | 12.9 | 8.49 | 19.1 | 1.12 | 3.68
45 | Cn1c(=O)n(-c2ccc(C(C)(C)C#N)cc2)c2c3cc(-c4cnc5ccccc5c4)ccc3ncc21 | 15 | 9.39 | 22.6 | 13.8 | 13.2 | 19.9 | 13 | 21.8
